# Reference: the supplement of paper PMC8728848
# The list shows a part of the results.
# B1: PX14375F-bfa-539-21-539 (Bacteroides fragilis) (protein)
# chain: EDFLQKDPPSSPSQSVFWQKKSDFESALAGTYSVMYSGVFSQIMPCLDGLTDNAIVQHSEGTYGWAKTIAQGDLTPNQGGFVTDIYGNCYKGIARVHILMEQLDQYTGSDISADEKKFMLAQCKALRGYFYSWLYQCYKEVPVVTQSLDLNTMYQPKATRAEVLNRVMTDYDEAISELPDKLYSDSQTSGRFTVSAVKALKARILLFDAYDSNGKAISSKMEEVLTLLQSIKGYSLAARVRDNFISEKQLASPEIMFSVRFLRPNLTHSMDLYYGAWAVLDPTRNMVDAFECTDGKPWGESPLTVRPDESILYGNDDALKKAERAKMFMNRDRRLYESVNHSMMANFVDDGFKDEEVQVNESNNKGPTGFSALKYVQPTDVTPGYSTVSDADIVVLRYAHVLLMIAEAENEAHGATTTALNAINEVRTRSGQPAIEAGISQDDLRERIRNEWRIETCFEGLRYFQLKRWKLMDKRVNGVEDPAYPGYIKVYKPAFEFFPIPQSEIDKAGGVLKQDPAYE
# Tests used:
# Assay in all cases: glycan array binding signal (z-score within array); higher = stronger binding
# Settings in all cases: glycan notation: IUPAC condensed, linker removed
# [1] = target: Fuc(a1-2)Gal(b1-4)GlcNAc(b1-3)Gal(b1-4)GlcNAc(b1-3)Gal(b1-4)GlcNAc
# In short: (§1)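 Glycan array data came from 3228 arrays in the Consortium for Functional Glycomics database, and only arrays with an available protein sequence were kept. Glycan names were put into IUPAC-condensed notation, and columns mapping to the same glycan were averaged. The binding signal is a within-array Z-score, averaged across arrays of one protein sequence run at different concentrations or buffers and across linkers. A negative Z-score can be read as non-binding.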
# [2] = target: Fuc(a1-2)Gal(b1-4)GlcNAc(b1-3)GalNAc
# In short: as §1
# [3] = target: Fuc(a1-2)Gal(b1-4)GlcNAc(b1-3)[Fuc(a1-2)Gal(b1-4)GlcNAc(b1-6)]GalNAc
# In short: as §1
# [4] = target: Fuc(a1-2)Gal(b1-4)GlcNAc(b1-3)[Fuc(a1-3)[Gal(b1-4)]GlcNAc(b1-6)]Gal(b1-4)Glc
# In short: as §1
# [5] = target: Fuc(a1-2)Gal(b1-4)GlcNAc(b1-6)GalNAc
# In short: as §1
# [6] = target: Fuc(a1-2)Gal(b1-4)GlcNAc6S
# In short: as §1
# [7] = target: Fuc(a1-2)Gal(b1-4)[Fuc(a1-3)]GlcNAc
# In short: as §1
# [8] = target: Fuc(a1-2)Gal(b1-4)[Fuc(a1-3)]GlcNAc(b1-2)Man(a1-3)[Fuc(a1-2)Gal(b1-4)[Fuc(a1-3)]GlcNAc(b1-2)Man(a1-6)]Man(b1-4)GlcNAc(b1-4)[Fuc(a1-6)]GlcNAc
# In short: as §1
# [9] = target: Fuc(a1-2)Gal(b1-4)[Fuc(a1-3)]GlcNAc(b1-2)[Fuc(a1-2)Gal(b1-4)[Fuc(a1-3)]GlcNAc(b1-4)]Man(a1-3)[Fuc(a1-2)Gal(b1-4)[Fuc(a1-3)]GlcNAc(b1-2)Man(a1-6)]Man(b1-4)GlcNAc(b1-4)GlcNAc
# In short: as §1
# [10] = target: Fuc(a1-2)Gal(b1-4)[Fuc(a1-3)]GlcNAc(b1-3)Gal(b1-4)[Fuc(a1-3)]GlcNAc
# In short: as §1
# [11] = target: Fuc(a1-2)Gal(b1-4)[Fuc(a1-3)]GlcNAc(b1-3)Gal(b1-4)[Fuc(a1-3)]GlcNAc(b1-3)Gal(b1-4)[Fuc(a1-3)]GlcNAc
# In short: as §1
# [12] = target: Fuc(a1-2)Gal(b1-4)[Fuc(a1-3)]GlcNAc(b1-3)GalNAc
# In short: as §1
# [13] = target: Fuc(a1-2)Gal(b1-4)[Fuc(a1-3)]GlcNAc(b1-3)[Neu5Ac(a2-6)Gal(b1-4)GlcNAc(b1-6)]Gal(b1-4)Glc
# In short: as §1
# [14] = target: Fuc(a1-2)Gal3S(b1-4)GlcNAc
# In short: as §1
# [15] = target: Fuc(a1-2)Gal6S(b1-3)GlcNAc
# In short: as §1
# [16] = target: Fuc(a1-2)Gal6S(b1-3)GlcNAc6S
# In short: as §1
# [17] = target: Fuc(a1-2)Gal6S(b1-4)Glc
# In short: as §1
# [18] = target: Fuc(a1-2)Gal6S(b1-4)Glc6S
# In short: as §1
# [19] = target: Fuc(a1-2)[Gal(a1-3)]Gal
# In short: as §1
# [20] = target: Fuc(a1-2)[Gal(a1-3)]Gal(b1-3)GalNAc
# In short: as §1
# [21] = target: Fuc(a1-2)[Gal(a1-3)]Gal(b1-3)GalNAc(b1-3)Gal(a1-4)Gal(b1-4)Glc
# In short: as §1
# [22] = target: Fuc(a1-2)[Gal(a1-3)]Gal(b1-3)GlcNAc
# In short: as §1
# [23] = target: Fuc(a1-2)[Gal(a1-3)]Gal(b1-3)GlcNAc(b1-2)Man(a1-3)[Fuc(a1-2)[Gal(a1-3)]Gal(b1-3)GlcNAc(b1-2)Man(a1-6)]Man(b1-4)GlcNAc(b1-4)GlcNAc
# In short: as §1
# [24] = target: Fuc(a1-2)[Gal(a1-3)]Gal(b1-3)GlcNAc(b1-2)Man(a1-3)[Fuc(a1-2)[Gal(a1-3)]Gal(b1-3)GlcNAc(b1-2)Man(a1-6)]Man(b1-4)GlcNAc(b1-4)[Fuc(a1-6)]GlcNAc
# In short: as §1
# [25] = target: Fuc(a1-2)[Gal(a1-3)]Gal(b1-3)GlcNAc(b1-3)GalNAc
# In short: as §1
# [26] = target: Fuc(a1-2)[Gal(a1-3)]Gal(b1-3)GlcNAc(b1-6)GalNAc
# In short: as §1
# [27] = target: Fuc(a1-2)[Gal(a1-3)]Gal(b1-4)Glc
# In short: as §1
# [28] = target: Fuc(a1-2)[Gal(a1-3)]Gal(b1-4)GlcNAc
# In short: as §1
# [29] = target: Fuc(a1-2)[Gal(a1-3)]Gal(b1-4)GlcNAc(b1-2)Man
# In short: as §1
# [30] = target: Fuc(a1-2)[Gal(a1-3)]Gal(b1-4)GlcNAc(b1-2)Man(a1-3)[Fuc(a1-2)[Gal(a1-3)]Gal(b1-4)GlcNAc(b1-2)Man(a1-6)]Man(b1-4)GlcNAc(b1-4)GlcNAc
# In short: as §1
binder,measurement,setting,value
B1,glycan array binding signal (z-score),[1],-0.687
same,glycan array binding signal (z-score),[2],0.334
same,glycan array binding signal (z-score),[3],0.212
same,glycan array binding signal (z-score),[4],0.539
same,glycan array binding signal (z-score),[5],0.17
same,glycan array binding signal (z-score),[6],-0.173
same,glycan array binding signal (z-score),[7],-0.409
same,glycan array binding signal (z-score),[8],0.094
same,glycan array binding signal (z-score),[9],1.49
same,glycan array binding signal (z-score),[10],-0.506
same,glycan array binding signal (z-score),[11],-0.644
same,glycan array binding signal (z-score),[12],0.387
same,glycan array binding signal (z-score),[13],-0.43
same,glycan array binding signal (z-score),[14],-0.537
same,glycan array binding signal (z-score),[15],-0.477
same,glycan array binding signal (z-score),[16],0.375
same,glycan array binding signal (z-score),[17],0.29
same,glycan array binding signal (z-score),[18],0.071
same,glycan array binding signal (z-score),[19],0.615
same,glycan array binding signal (z-score),[20],-0.04
same,glycan array binding signal (z-score),[21],0.042
same,glycan array binding signal (z-score),[22],-0.642
same,glycan array binding signal (z-score),[23],-0.142
same,glycan array binding signal (z-score),[24],-0.346
same,glycan array binding signal (z-score),[25],-0.834
same,glycan array binding signal (z-score),[26],-0.329
same,glycan array binding signal (z-score),[27],-0.355
same,glycan array binding signal (z-score),[28],-0.7
same,glycan array binding signal (z-score),[29],-0.35
same,glycan array binding signal (z-score),[30],6.22
